Hit rate of the full screen: of about 44,000 compounds, about 340 (0.77%) were called active. Not shown: some 5% with an inconclusive outcome. Calls follow the shape of the dose curve; as a rule, active = well fitted inhibition curve with a large enough effect; inconclusive = small, poorly fitted or top-dose-only effect; inactive = flat fitted curve, though single readings scatter. Some of the results follow.
experiment: Acumen qHTS Assay for Inhibitors of the mTORC1 Signaling Pathway in MEF (Tsc2-/-, p53-/-) Cells: Sytravon; settings: phospho-rpS6 immunofluorescence/PI, 24 h; series mostly up to 38.3 µM; activity change, negative = inhibition: at the top concentration; also: nearly all actives have a fitted effect of over 50% in size
From the text: NIH Molecular Libraries Probe Production Centers Network [MLPCN] NIH Chemical Genomics Center [NCGC] MLPCN Grant: NS059428-01 Assay Submitter (PI): Blenis, John; Hoffman, Greg; Harvard University NCGC Assay Overview: The mammalian target of rapamycin (mTOR) is an intracellular serine/threonine kinase Aberrant regulation of mTOR signaling plays a causative role in a number of human diseases, including cancer, benign tumors such as lymphangioleiomyomatosis (LAM) and Tuberous Sclerosis Complex (TSC), and metabolic diseases such as diabetes and obesity. This project aims to identify inhibitors of ribosomal protein S6 (rpS6) phosphorylation. The phosphorylation of rpS6 is a key event downstream of mTOR activation. The assay uses a phospho-specific antibody of phospho-rpS6 to detect inhibitors of mTOR activation. Mutations in the Tsc1 and Tsc2 genes are the underlying genetic lesions responsible for TSC, causing constitutive activation of the mTORC1 pathway and leading to profound effects on cell metabolism. Aberrant metabolism in cancer has recently received significant attention as a target to develop therapeutic agents in the treatment of cancer.1 As Tsc2-/- cells have lost the ability to respond to energy and growth factor deprivation, these cells are unable to properly down regulate cellular biosynthetic processes in response to metabolic stress, and are thus extremely sensitive to glucose deprivation-induced death.2 A central goal of this project is to explore the unique cell survival and metabolic properties of cells with Tsc1 or Tsc2 by screening for compounds that selectively target the Tsc2-/- MEFs by screening both Tsc2-/- and WT MEF cell lines. We hope to better understand these aspects of TSC physiology in order to exploit them for therapeutic benefit.
NCGC Acumen Assay Protocol Summary: For quantitative high throughput analysis of mTORC1 signaling, we developed a cell-based assay for immuno-fluorescence based detection of rpS6 phosphorylation on the Acumen Explorer that will be used a platform for the primary small molecule screen. Mouse embryonic fibroblasts (MEFs) are cultured in 1536-well plates using DMEM + 10% FBS. Twenty-four hrs after plating, test compounds (solubilized in DMSO) are delivered and incubated with the cells for 24 hrs at 37 degree Celsius. Following the incubation, media with compound is aspirated and the cells are fixed in 4% paraformaldehyde (PFA) containing PBS + 0.2% TX-100. Next, PFA is aspirated, cells are washed two times with PBS plus 0.2% TX-100 and the cells are blocked for 1 hr at room temperature (blocking buffer: LiCOR Blocking Buffer plus 0.2% TX-100). […] Cells are washed two times with PBS plus 0.2% TX-100, and stained with 10 uM propidium iodide (PI) for 20-25 minutes for cell number measurement (1:500 dilution of Hoescht staining is also added for IN Cell imaging). The plates are scanned on the Acumen Explorer laser scanning instrument (TTP Labtech) using the 488nm laser for simultaneous excitation of the Alexa-488 and PI. […] The normalized phospho-S6 staining is calculated as the ratio of the integrated Alexa 488 intensity divided by the integrated PI intensity for the single concentration rapamycin control (7.5 nM) and DMSO columns. […] Inhibition of the pathway is defined based on the normalized phospho-S6 intensity in rapamycin treated cells. Active cells are defined as those with a normalized phospho-S6 staining above this threshold, and each treatment is reported as the % positive cells in the well, where thresholds are defined by selecting wells with the highest and lowest signal and differentiating between the % non-active and % active populations. In addition to the pathway specific phospho-S6 endpoint, the number of PI stained cells from the Acumen is recorded as a measure of cell viability. The primary screen was performed with a MEF cell line in a defined genetic background, Tsc2-/-, p53-/- cell line stably transfected with an empty vector control (Tsc2-/- MEF).

| SMILES | activity change, negative = inhibition |
| --- | --- |
| Cc1ccccc1NC(=O)Cn1c(=O)n(CCCCC(=O)NCc2ccccc2Cl)c(=O)c2ccccc21 | inactive: -6.54% |
| O=C(CN1C(=O)COc2ccc(S(=O)(=O)Nc3ccccc3)cc21)NCc1ccccc1Cl | inactive: 0.24% |
| CCN(CC)S(=O)(=O)c1ccc(C(=O)NC2CC(=O)N(c3ccc4c(c3)OCCO4)C2)cc1 (centres undefined) | inactive: 1.14% |
| CCOC(=O)c1c(S(=O)(=O)N2CCC(C(=O)Nc3cccc(C#N)c3)CC2)c(C)n(C)c1C | inactive: -0.658% |
| Cc1c(C(=O)OC2CCCCCC2)[nH]c2c1C(=O)CC(c1ccccc1Cl)C2 (centres undefined) | inactive: -24.5% |
| COc1ccc(CCNc2nc(SCc3ccccc3Cl)nc3ccccc23)cc1OC | inactive: 3.12% |
| COc1ccc(NC(=O)Cn2c(=O)n(CCc3ccccc3)c(=O)c3sc4ccccc4c32)cc1 | inactive: -10.2% |
| Cc1cc(C)nc(-n2nc(C)c3c2NC(=O)CC3c2ccccc2OC(C)C)n1 (centres undefined) | inactive: -2.36% |
| O=C(CSc1nc2c(c(=O)[nH]1)CN(Cc1ccc(F)cc1)CC2)Nc1cccc(C(F)(F)F)c1 | inactive: -1.35% |
| CCCCC(=O)NC1(C(F)(F)F)C(=O)Nc2c1c(=O)[nH]c(=O)n2-c1ccc(F)cc1 (centres undefined) | inactive: -9.74% |
| Cc1ccc(C)c(NC(=O)C2CCCN(S(=O)(=O)c3cccc4nsnc34)C2)c1 (centres undefined) | inactive: 3.44% |
| COc1cc(Cl)c(NS(=O)(=O)c2ccc3[nH]c(=O)ccc3c2)c(OC)c1 | inactive: 1.52% |
| CCC1CCCCN1C(=O)Cn1c(=O)n(-c2ccccc2C(F)(F)F)c(=O)c2c(C)c(C(=O)N(C)C)sc21 (centres undefined) | inactive: -1.09% |
| CCOc1ccc(NC(=O)C(CC)n2nc(-c3ccc(C)c(C)c3)ccc2=O)cc1 (centres undefined) | inactive: -0.201% |
| CCOc1ccc(OCC)c(NC(=O)CN(c2ccc(C)cc2)S(=O)(=O)c2c(C)n[nH]c2C)c1 | inactive: -2.05% |
| COc1ccc(C2CC(=O)c3c([nH]c(C(=O)OC4CCCC4)c3C)C2)cc1OC (centres undefined) | inactive: 1.45% |
| COc1ccccc1N1CCN(C(c2ccccc2)c2nnc(-c3ccccc3Cl)o2)CC1 (centres undefined) | inactive: -7.87% |
| Cc1ccc(NC(=O)Cn2c(=O)n(Cc3nc(-c4ccccc4)no3)c(=O)c3cc4c(cc32)OCO4)cc1C | inactive: -0.84% |
| O=C(c1ccc2c(c1)N(Cc1ccccc1F)C(=O)c1ccccc1S2(=O)=O)N1CCCCCC1 | inactive: -3.44% |
| CCCNC(=O)c1cc2n(n1)CCCN(Cc1ccc(F)cc1)C2=O | inactive: -6.44% |

| SMILES | activity change, negative = inhibition |
| --- | --- |
| COc1cccc(C(=O)c2sc(Nc3ccc(C)cc3C)c(S(=O)(=O)c3ccccc3)c2N)c1 | inactive: 1.51% |
| CCOc1ccc(CCNC(=O)c2ccc(Cn3c(=O)c4cccn4c4cccnc43)cc2)cc1 | inactive: -4.12% |
| COc1ccc(-c2csc3ncnc(Nc4ccc(OC)c(OC)c4)c23)cc1 | inactive: 0% |
| CCOC(=O)c1sc(N2C(=O)c3oc4ccc(F)cc4c(=O)c3C2c2cccc(OC)c2)nc1C (centres undefined) | inactive: -3.18% |
| Cc1cc(N2CCCCC2)nc2ccc(NC(=O)CCC(=O)N3CCN(c4cccc(Cl)c4)CC3)cc12 | inactive: -7.75% |
| CCN(C(=O)Cn1c(SCc2ccccc2F)nc2cccnc21)c1ccccc1 | inactive: 2.44% |
| O=C(C1COc2ccccc2O1)N(Cc1cccnc1)c1nc2ccc(F)cc2s1 (centres undefined) | inactive: -1.71% |
| O=C(CSCc1nc2cccnc2n1C1CCCCC1)NCc1cccc(Br)c1 | inactive: -0.858% |
| O=C(OCc1ccccc1)c1ccc(-c2nnn(Cc3ccccc3F)n2)cc1 | inactive: 3.11% |
| CCOc1ccc(CCNC(=O)c2ccc3[nH]c(C)c(C)c3c2)cc1 | inactive: -3.81% |
| Cc1ccc2scc(N3CCN(c4ccccc4)CC3)c(=O)c2c1 | inactive: -0.684% |
| O=C(Cn1c(=O)oc2ccccc21)NCc1ccccc1Cl | inactive: -0.573% |
| O=C(CSc1nc(-c2ccco2)nc2cc(=O)[nH]n12)Nc1ccccc1Cl | inactive: -22.6% |
| COc1ccc(-n2c(-c3ccc(F)cc3)cn3c4c(=O)n(C)c(=O)n(C)c4nc23)cc1 | inactive: 5.72% |
| CCOc1ccc2ncc3c(-c4ccccc4)nn(CC(=O)Nc4cccc(F)c4)c3c2c1 | inactive: -6.82% |
| COc1ccccc1CNC(=O)Cn1c(=O)oc2ccccc21 | inactive: 3.27% |
| O=C(CSc1nc2c(c(=O)[nH]1)CCCC2)Nc1cccc(O)c1 | inactive: 1.7% |
| COc1cc2[nH]c(=O)n(CCCC(=O)NCc3ccccc3Cl)c(=O)c2cc1OC | inactive: -1.2% |
| COCCCNC(=O)C1CCN(c2nnc(-n3cccc3CNc3ccc(C)cc3)s2)CC1 | inactive: 0.215% |
| COC(=O)c1ccccc1NC(=O)CSc1nc2sc3c(c2c(=O)[nH]1)CCCC3 | inactive: -1.7% |

| SMILES | activity change, negative = inhibition |
| --- | --- |
| O=C(CN1C(=O)C2CCCCN2c2ccc(C(=O)N3CCCC3)cc21)NCc1ccccc1 (centres undefined) | inactive: 0% |
| COCCCNC(=O)Cn1c(=O)n(-c2cccc(C)c2)c(=O)c2c3c(sc21)CN(C(C)=O)CC3 | inactive: -5.94% |
| COc1ccccc1CNc1nc(-c2ccco2)nn1C(=O)c1ccccc1[N+](=O)[O-] | inactive: -8.18% |
| CCCCn1c(CCNC(=O)c2ccc(F)cc2)nc2ccccc21 | inactive: 2.71% |
| COc1cccc(CNC(=O)Cn2cc3c(n2)-c2c(oc(C(=O)N4CCOCC4)c2C)CC3)c1 | inactive: -6.9% |
| COc1ccc(S(=O)(=O)N2Cc3ccccc3CC2C(=O)Nc2cccc(C)c2)cc1OC (centres undefined) | inactive: -15.6% |
| Cc1cc(=O)n2c(C(=O)Nc3ccc(C)c(C)c3)c(C(=O)Nc3ccccc3)sc2n1 | inactive: -4.15% |
| CN(C)c1ccc(CNc2nc(-c3ccco3)nn2S(=O)(=O)c2ccc(Cl)cc2)cc1 | inactive: -2.2% |
| CCN(C(=O)CSc1nnc(-c2ccc(Cl)cc2)o1)c1ccccc1 | inactive: -0.259% |
| CCc1cccc(C)c1NC(=O)C1CCCN(S(=O)(=O)c2cccc3nsnc23)C1 (centres undefined) | inactive: 2.83% |
| Cc1ccc2nc(N3CCN(C(=O)C4COc5ccccc5O4)CC3)sc2c1 (centres undefined) | inactive: -1.61% |
| Cc1ccnc(NS(=O)(=O)c2ccc(NC(=O)c3cc(=O)c4ccc(C)c(C)c4o3)cc2)n1 | inactive: -1.46% |
| COC(=O)c1ccc(CSc2nc3c([nH]c4ccccc43)c(=O)n2-c2cccc(OC)c2)o1 | inactive: -8.73% |
| COc1ccc(-c2nc3ccccc3o2)cc1NC(=O)c1ccc(N2CCC(C)CC2)c([N+](=O)[O-])c1 | inactive: -18% |
| COc1ccc(CNC(=O)c2cc3c(=O)n(Cc4cccs4)ccc3nc2C)cc1 | inactive: -5.19% |
| CCOC(=O)c1sc(NC(=O)c2nc(SCC)ncc2Cl)c(C(=O)OCC)c1C | inactive: -16.1% |
| CN(C)CCNC(=O)Cc1ccc(NC(=O)N2CCCCc3ccccc32)cc1 | inactive: -4.41% |
| Cc1nn(Cc2ccccc2)c(C)c1NC(=O)c1cc(C(C)C)on1 | inactive: -3.44% |
| Cc1ccc(C(=O)c2cn(Cc3ccc(F)cc3)c3nc(C)ccc3c2=O)cc1 | inactive: -21.3% |

Source: PubChem BioAssay AID493208 (National Center for Advancing Translational Sciences (NCATS), 2011)
